Some of the results follow.
Experiments:
Experiment in all cases: glycan array binding signal (z-score within array); higher = stronger binding
Conditions in all cases: glycan notation: IUPAC condensed, linker removed
[1] = target: Fuc(a1-2)[Gal(a1-3)]Gal(b1-4)GlcNAc(b1-2)Man(a1-3)[Fuc(a1-2)[Gal(a1-3)]Gal(b1-4)GlcNAc(b1-2)Man(a1-6)]Man(b1-4)GlcNAc(b1-4)[Fuc(a1-6)]GlcNAc
Outline: (§1)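 Columns mapping to the same glycan were averaged after glycan names were converted to IUPAC-condensed notation. The data come from 3228 arrays in the Consortium for Functional Glycomics database, limited to those with an available protein sequence. Binding is reported as a within-array Z-score averaged across arrays of one protein sequence and across linkers.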

[2] = target: Fuc(a1-2)[Gal(a1-3)]Gal(b1-4)GlcNAc(b1-3)GalNAc
Outline: as §1

[3] = target: Fuc(a1-2)[Gal(a1-3)]Gal(b1-4)GlcNAc(b1-3)[Fuc(a1-2)[Gal(a1-3)]Gal(b1-4)GlcNAc(b1-6)]GalNAc
Outline: as §1

[4] = target: Fuc(a1-2)[Gal(a1-3)]Gal(b1-4)GlcNAc(b1-6)GalNAc
Outline: as §1

[5] = target: Fuc(a1-2)[Gal(a1-3)]Gal(b1-4)[Fuc(a1-3)]Glc
Outline: as §1

[6] = target: Fuc(a1-2)[Gal(a1-3)]Gal(b1-4)[Fuc(a1-3)]GlcNAc
Outline: as §1

[7] = target: Fuc(a1-2)[Gal(a1-3)]Gal(b1-4)[Fuc(a1-3)]GlcNAc(b1-3)GalNAc
Outline: as §1

[8] = target: Fuc(a1-2)[Gal(a1-4)]Gal(b1-4)GlcNAc
Outline: as §1

[9] = target: Fuc(a1-2)[GalNAc(a1-3)]Gal
Outline: as §1

[10] = target: Fuc(a1-2)[GalNAc(a1-3)]Gal(b1-3)GalNAc(a1-3)[Fuc(a1-2)]Gal(b1-4)GlcNAc
Outline: as §1

[11] = target: Fuc(a1-2)[GalNAc(a1-3)]Gal(b1-3)GalNAc(b1-3)Gal(a1-4)Gal(b1-4)Glc
Outline: as §1

[12] = target: Fuc(a1-2)[GalNAc(a1-3)]Gal(b1-3)GlcNAc
Outline: as §1

[13] = target: Fuc(a1-2)[GalNAc(a1-3)]Gal(b1-3)GlcNAc(b1-2)Man(a1-3)[Fuc(a1-2)[GalNAc(a1-3)]Gal(b1-3)GlcNAc(b1-2)Man(a1-6)]Man(b1-4)GlcNAc(b1-4)GlcNAc
Outline: as §1

[14] = target: Fuc(a1-2)[GalNAc(a1-3)]Gal(b1-3)GlcNAc(b1-2)Man(a1-3)[Fuc(a1-2)[GalNAc(a1-3)]Gal(b1-3)GlcNAc(b1-2)Man(a1-6)]Man(b1-4)GlcNAc(b1-4)[Fuc(a1-6)]GlcNAc
Outline: as §1

[15] = target: Fuc(a1-2)[GalNAc(a1-3)]Gal(b1-3)GlcNAc(b1-3)GalNAc
Outline: as §1

[16] = target: Fuc(a1-2)[GalNAc(a1-3)]Gal(b1-3)GlcNAc(b1-6)GalNAc
Outline: as §1

[17] = target: Fuc(a1-2)[GalNAc(a1-3)]Gal(b1-4)Glc
Outline: as §1

[18] = target: Fuc(a1-2)[GalNAc(a1-3)]Gal(b1-4)GlcNAc
Outline: as §1

[19] = target: Fuc(a1-2)[GalNAc(a1-3)]Gal(b1-4)GlcNAc(b1-2)Man
Outline: as §1

[20] = target: Fuc(a1-2)[GalNAc(a1-3)]Gal(b1-4)GlcNAc(b1-2)Man(a1-3)[Fuc(a1-2)[GalNAc(a1-3)]Gal(b1-4)GlcNAc(b1-2)Man(a1-6)]Man(b1-4)GlcNAc(b1-4)GlcNAc
Outline: as §1

[21] = target: Fuc(a1-2)[GalNAc(a1-3)]Gal(b1-4)GlcNAc(b1-2)Man(a1-3)[Fuc(a1-2)[GalNAc(a1-3)]Gal(b1-4)GlcNAc(b1-2)Man(a1-6)]Man(b1-4)GlcNAc(b1-4)[Fuc(a1-6)]GlcNAc
Outline: as §1

[22] = target: Fuc(a1-2)[GalNAc(a1-3)]Gal(b1-4)GlcNAc(b1-3)Gal(b1-4)GlcNAc
Outline: as §1

[23] = target: Fuc(a1-2)[GalNAc(a1-3)]Gal(b1-4)GlcNAc(b1-3)Gal(b1-4)GlcNAc(b1-3)Gal(b1-4)GlcNAc
Outline: as §1

[24] = target: Fuc(a1-2)[GalNAc(a1-3)]Gal(b1-4)GlcNAc(b1-3)GalNAc
Outline: as §1

[25] = target: Fuc(a1-2)[GalNAc(a1-3)]Gal(b1-4)GlcNAc(b1-3)[Fuc(a1-2)[GalNAc(a1-3)]Gal(b1-4)GlcNAc(b1-6)]GalNAc
Outline: as §1

[26] = target: Fuc(a1-2)[GalNAc(a1-3)]Gal(b1-4)GlcNAc(b1-6)GalNAc
Outline: as §1

[27] = target: Fuc(a1-2)[GalNAc(a1-3)]Gal(b1-4)[Fuc(a1-3)]GlcNAc
Outline: as §1

[28] = target: Fuc(a1-2)[GalNAc(a1-3)]Gal(b1-4)[Fuc(a1-3)]GlcNAc(b1-3)GalNAc
Outline: as §1

[29] = target: Fuc(a1-2)[GalNAc(a1-4)]Gal(b1-4)GlcNAc
Outline: as §1

[30] = target: Fuc(a1-2)[GalNAc(b1-3)]Gal
Outline: as §1

Fuc(a1-3)GlcNAc = target: Fuc(a1-3)GlcNAc
Outline: as §1

[31] = target: Fuc(a1-3)[Gal(b1-4)]Glc6S
Outline: as §1

[32] = target: Fuc(a1-3)[Gal(b1-4)]GlcNAc
Outline: as §1

[33] = target: Fuc(a1-3)[Gal(b1-4)]GlcNAc(b1-2)Man
Outline: as §1

[34] = target: Fuc(a1-3)[Gal(b1-4)]GlcNAc(b1-2)Man(a1-3)[Fuc(a1-3)[Gal(b1-4)]GlcNAc(b1-2)Man(a1-6)]Man(b1-4)GlcNAc(b1-4)GlcNAc
Outline: as §1

[35] = target: Fuc(a1-3)[Gal(b1-4)]GlcNAc(b1-2)Man(a1-3)[Fuc(a1-3)[Gal(b1-4)]GlcNAc(b1-2)Man(a1-6)]Man(b1-4)GlcNAc(b1-4)[Fuc(a1-6)]GlcNAc
Outline: as §1

[36] = target: Fuc(a1-3)[Gal(b1-4)]GlcNAc(b1-3)Gal(b1-3)[Fuc(a1-4)]GlcNAc
Outline: as §1

[37] = target: Fuc(a1-3)[Gal(b1-4)]GlcNAc(b1-3)Gal(b1-4)[Fuc(a1-3)]GlcNAc
Outline: as §1

[38] = target: Fuc(a1-3)[Gal(b1-4)]GlcNAc(b1-3)Gal(b1-4)[Fuc(a1-3)]GlcNAc(b1-3)Gal(b1-4)[Fuc(a1-3)]GlcNAc
Outline: as §1

[39] = target: Fuc(a1-3)[Gal(b1-4)]GlcNAc(b1-3)GalNAc
Outline: as §1

[40] = target: Fuc(a1-3)[Gal(b1-4)]GlcNAc(b1-6)GalNAc
Outline: as §1

[41] = target: Fuc(a1-3)[Gal(b1-4)]GlcNAc(b1-6)[Gal(b1-3)GlcNAc(b1-3)]Gal(b1-4)Glc
Outline: as §1

[42] = target: Fuc(a1-3)[Gal(b1-4)]GlcNAc6S
Outline: as §1

[43] = target: Fuc(a1-3)[Gal3S(b1-4)]Glc
Outline: as §1

[44] = target: Fuc(a1-3)[Gal3S(b1-4)]GlcNAc
Outline: as §1

[45] = target: Fuc(a1-3)[Gal3S(b1-4)]GlcNAc6S
Outline: as §1

[46] = target: Fuc(a1-3)[GalNAc(b1-4)]GlcNAc
Outline: as §1

[47] = target: Fuc(a1-3)[GalNAc(b1-4)]GlcNAc6S
Outline: as §1

Fuc(a1-4)GlcNAc = target: Fuc(a1-4)GlcNAc
Outline: as §1

Fuc(b1-3)GlcNAc = target: Fuc(b1-3)GlcNAc
Outline: as §1

Gal(a1-2)Gal = target: Gal(a1-2)Gal
Outline: as §1

Gal(a1-3)Gal = target: Gal(a1-3)Gal
Outline: as §1

Gal(a1-3)Gal(b1-3)GlcNAc = target: Gal(a1-3)Gal(b1-3)GlcNAc
Outline: as §1

[48] = target: Gal(a1-3)Gal(b1-3)GlcNAc(b1-2)Man
Outline: as §1

[49] = target: Gal(a1-3)Gal(b1-3)GlcNAc(b1-2)Man(a1-3)[Gal(a1-3)Gal(b1-3)GlcNAc(b1-2)Man(a1-6)]Man(b1-4)GlcNAc(b1-4)GlcNAc
Outline: as §1

[50] = target: Gal(a1-3)Gal(b1-3)GlcNAc(b1-3)GalNAc
Outline: as §1

[51] = target: Gal(a1-3)Gal(b1-3)GlcNAc(b1-6)GalNAc
Outline: as §1

[52] = target: Gal(a1-3)Gal(b1-3)[Fuc(a1-4)]GlcNAc(b1-2)Man(a1-3)[Gal(a1-3)Gal(b1-3)[Fuc(a1-4)]GlcNAc(b1-2)Man(a1-6)]Man(b1-4)GlcNAc(b1-4)GlcNAc
Outline: as §1

Gal(a1-3)Gal(b1-4)Glc = target: Gal(a1-3)Gal(b1-4)Glc
Outline: as §1

Gal(a1-3)Gal(b1-4)GlcNAc = target: Gal(a1-3)Gal(b1-4)GlcNAc
Outline: as §1

B1: FGFR2-Fc (protein)
chain: MVNVTDAISSGDDEDDTDGAEDFVSENSNNKRAPYWTNTEKMEKRLHAVPAANTVKFRCPAGGNPMPTMRWLKNGKEFKQEHRIGGYKVRNQHWSLIMESVVPSDKGNYTCVVENEYGSINHTYHLDVVERSPHRPILQAGLPANASTVVGGDVEFVCKVYSDAQPHIQWIKHVEKNGSKYGPDGLPYLKVLKHSGINSSNAEVLALFNVTEADAGEYICKVSNYIGQANQSAWLTVLPKQQAPGREKEITASPDYLETRPLEQKLISEEDLAANDILDYKDDDDKV
[1]
  glycan array binding signal (z-score): 0.248
[2]
  glycan array binding signal (z-score): 0.523
[3]
  glycan array binding signal (z-score): -0.181
[4]
  glycan array binding signal (z-score): -0.635
[5]
  glycan array binding signal (z-score): -0.308
[6]
  glycan array binding signal (z-score): 0.157
[7]
  glycan array binding signal (z-score): 0.311
[8]
  glycan array binding signal (z-score): -0.441
[9]
  glycan array binding signal (z-score): 0.136
[10]
  glycan array binding signal (z-score): -0.19
[11]
  glycan array binding signal (z-score): 0.082
[12]
  glycan array binding signal (z-score): -0.081
[13]
  glycan array binding signal (z-score): -0.422
[14]
  glycan array binding signal (z-score): 0.414
[15]
  glycan array binding signal (z-score): 0.532
[16]
  glycan array binding signal (z-score): -0.753
[17]
  glycan array binding signal (z-score): 0.258
[18]
  glycan array binding signal (z-score): -0.434
[19]
  glycan array binding signal (z-score): -0.039
[20]
  glycan array binding signal (z-score): 0.034
[21]
  glycan array binding signal (z-score): -0.33
[22]
  glycan array binding signal (z-score): -0.564
[23]
  glycan array binding signal (z-score): -0.041
[24]
  glycan array binding signal (z-score): -0.332
[25]
  glycan array binding signal (z-score): -0.517
[26]
  glycan array binding signal (z-score): -0.19
[27]
  glycan array binding signal (z-score): -0.549
[28]
  glycan array binding signal (z-score): 0.373
[29]
  glycan array binding signal (z-score): -0.017
[30]
  glycan array binding signal (z-score): -0.186
Fuc(a1-3)GlcNAc
  glycan array binding signal (z-score): -0.323
[31]
  glycan array binding signal (z-score): 0.766
[32]
  glycan array binding signal (z-score): -0.162
[33]
  glycan array binding signal (z-score): 0.175
[34]
  glycan array binding signal (z-score): -0.403
[35]
  glycan array binding signal (z-score): 0.482
[36]
  glycan array binding signal (z-score): -0.308
[37]
  glycan array binding signal (z-score): 0.394
[38]
  glycan array binding signal (z-score): -0.375
[39]
  glycan array binding signal (z-score): 0.287
[40]
  glycan array binding signal (z-score): -0.006
[41]
  glycan array binding signal (z-score): -0.327
[42]
  glycan array binding signal (z-score): 1.73
[43]
  glycan array binding signal (z-score): -0.104
[44]
  glycan array binding signal (z-score): -0.17
[45]
  glycan array binding signal (z-score): -0.073
[46]
  glycan array binding signal (z-score): 0.028
[47]
  glycan array binding signal (z-score): -0.239
Fuc(a1-4)GlcNAc
  glycan array binding signal (z-score): 0.356
Fuc(b1-3)GlcNAc
  glycan array binding signal (z-score): -0.312
Gal(a1-2)Gal
  glycan array binding signal (z-score): -0.645
Gal(a1-3)Gal
  glycan array binding signal (z-score): 0.452
Gal(a1-3)Gal(b1-3)GlcNAc
  glycan array binding signal (z-score): -0.278
[48]
  glycan array binding signal (z-score): -0.109
[49]
  glycan array binding signal (z-score): -0.44
[50]
  glycan array binding signal (z-score): -0.312
[51]
  glycan array binding signal (z-score): -0.722
[52]
  glycan array binding signal (z-score): -0.292
Gal(a1-3)Gal(b1-4)Glc
  glycan array binding signal (z-score): -0.089
Gal(a1-3)Gal(b1-4)GlcNAc
  glycan array binding signal (z-score): 0.658
